The values that follow come from the RNAGym collection of RNA variant scans (doi:10.1093/nar/gkz1192).

Read counts are not given, so values of variants with three or more changes are uncertain.

To fix the notation:
B1: CPEB3 Ribozyme (parent)
chain: UAACAGGGGGCCACAGCAGAAGCGUUCACGUCGCAGCCCCUGUCAGAUUCUGGUGAAUCUGCGAAUUCUGCUGUAUAUCUC

Variants of B1 are the subject of the data set. In words: self-cleavage, relative activity (ratio to wild type); higher = more cleavage; in vitro, sequencing. A digest of the protocol: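 CPEB3 self-cleaving ribozyme mutant libraries were made by rounds of error-prone PCR, barcoded, and transcribed in vitro with T7 RNA polymerase for 5 hours at 37°C. Cleavage occurred during transcription and a 15 min DNase I step before EDTA stop. RNAs were reverse transcribed with template switching and Illumina-sequenced, with DNA sequencing mapping barcodes to variants. Relative activity is the variant's cleaved/total read fraction divided by wild type's (minimum 5 reads), averaged across three batches.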
Consider A13G A47U U76A, for which the self-cleavage was found to be 0.3.
Under A13G U25C C40U A57G stands 0.17; under A13G A35U U43A A45G, 0.31.
Under A13G G24A U25C U41C G46U U72C stands 0.19; under A13G A18U A57G, 0.18.
Take A13G G22A U26C U51A U67C: the self-cleavage was 0.06.
Under A13G C14A C17U A21U C38U U51C stands 0.11; under A13G A20C U51C U74C, 0.17.
For A13G C17U A47G the value was 0.46.
For A13G C39G A45U A56U U66A U80A the value was 0.05.
On to A13G C32U C40G U80C, for which the self-cleavage came out at 0.06.
Regarding A13G A28G C40U U43C, the self-cleavage turned out to be 0.26.
Under A13G U26A A56U G61A U74G stands 0.09; under A13G A20U U67G U72A, 0.2; under A13G A20U U60C U66A G70U, 0.06.
Turning to A13G A47G U54C C62A U80A, the self-cleavage is 0.24.
Under A13G C14U C59G U60C stands 0.11; under A13G G24A U41C, 0.07; under A13G A21G U25C G30C U72A, 0.24.
For the variant A13G A35C A57G U58C U72A U80C, the self-cleavage came out at 0.1.
For A13G C40A U51G the value was 0.21.
As to A13G A56U U66C, the self-cleavage stood at 0.16.
Under A13G A47U A65G stands 0.23.
For A13G A28G A77G the value was 0.38.
For A13G G36A U54C U67A the value was 0.1; for A13G A21U C23A A45G A47G U72C, 0.03.
With A13G A45G G73A A77G, the self-cleavage amounted to 1.2.
For A13G G42U U78C U80A the value was 0.41.
For the variant A13G A18U A28U U31A U54A A56U A65U, the self-cleavage is 0.07.
Under A13G A35U A45G U49C U51A stands 0.09.
For A13G A35C A56C U69C G70U the value was 0.06; for A13G C39U U43C U54A, 0.56; for A13G A18U G55U U58A U66C U67A U76A, 0.16.
With A13G G46U G70A U72C U74A, the self-cleavage amounted to 0.07.
For A13G G30C A56G A64U the value was 0.57; for A13G A65G U69A, 0.39; for A13G G33C U51C U78C, 0.07.
Under A13G A45G U54C C62A U80C stands 0.2; under A13G A20G U25A, 0.13.
For the variant A13G A20U A21U G46C U48C A56U, the self-cleavage was determined as 0.09.
Under A13G U25A A45U A77G stands 0.13; under A13G A28G C39A U72C A75G, 0.07; under A13G A28G A45U, 0.24.
Under A13G A45G A64G G70U stands 0.18.
For A13G A35U C44U U69C the value was 0.11; for A13G A45G U66C U72A, 0.24; for A13G A28G U41C U49A U60C U66C U72C, 0.1.
As to A13G A65G U67C, the self-cleavage turned out to be 0.12.
Under A13G A35U U51C A56U A64U stands 0.15.
For A13G C38A A64G U78C the value was 0.14.
Under A13G A45U A56G stands 0.52; under A13G A20U U54C, 0.24.
A13G A45G U48C U51C A64G: the self-cleavage is 0.13.
For A13G A20C A35G the value was 0.13.
Under A13G U25A A45C U67C stands 0.09; under A13G A47U U48C U72C C81U, 0.26; under A13G C29U U43A, 0.24.
Take A13G G42A U51C G52C U60C: the self-cleavage turned out to be 0.11.
Consider A13G U25C U43G U58A, for which the self-cleavage amounted to 0.19.
Regarding A13G A35G U49A U69C, the self-cleavage was 0.16.
For A13G A20U U25C U58C A77G the value was 0.05.
Under A13G C39G A77G stands 0.07.
For A13G A47G U76A the value was 0.96; for A13G A35G G36A U41A A45G, 0.25.
As to A13G C23G U26C U31A G36A A64G U66C, the self-cleavage turned out to be 0.03.
Under A13G U25C U43C U49C A64U stands 0.12; under A13G A56G U69A, 0.3; under A13G C38U U69A U72C, 0.14.
For A13G A45U C62U U76C U78C the value was 0.14; for A13G A20U A35U U43C U48A U66C, 0.07; for A13G A45U U58C A75G, 0.2.
Under A13G A45U U51C U67C U78C stands 0.36; under A13G A21G U25A A45U U58A A75G, 0.03.
In the case of A13G C40U U54C A65G U67A A75U, the self-cleavage is 0.14.
Under A13G A35G A77U stands 0.85; under A13G C29U U31C G52A, 0.07.
For A13G A21C G53A U54C U72A the value was 0.06; for A13G A21G U31C, 0.41; for A13G A56G U60C A77G, 0.3.
For A13G C23G G70U the value was 0.15; for A13G U25C A28G G33A C39A U58C A75G, 0.09.
For the variant A13G U25A G30A A45G G55A, the self-cleavage is 0.17.
Under A13G A28G U51A U66A U80C stands 0.24; under A13G C14U A45U A64G, 0.26; under A13G G53A A65U U72G A77G, 0.16.
Under A13G A45U U54C U60A A75G A77U stands 1.13.
For A13G U26A A35G U43A A56U U72C the value was 0.06; for A13G A47U U49C C68A U72A, 0.09; for A13G A20G U26A G61U U69A, 0.08.
As to A13G U25C U54A U80C, the self-cleavage was 0.34.
Consider A13G U25A U48C A75U, for which the self-cleavage worked out at 0.12.
Under A13G A18U A65G stands 0.17; under A13G A45U U49C G63A A75G, 0.09; under A13G A45U U60C, 0.3.
For A13G A28G A56G the value was 0.2.
Under A13G G53A U72C stands 0.92; under A13G A20G U69C U72C, 0.16; under A13G A28G U31A U78C, 0.2.
On to A13G A28G C38U U76C, for which the self-cleavage worked out at 0.44.
For A13G A35U U48C U58A the value was 0.06; for A13G A35C U43A A64U, 0.25; for A13G U25A U51A A56G U58A U66C, 0.1.
For A13G A20G A56U C68A the value was 0.23; for A13G A21G C59U U67C, 0.1; for A13G U25C C32U U60C, 0.13.
Consider A13G U25C C29A A56U C68A U80C, for which the self-cleavage was 0.16.
On to A13G A18U G24A A77G, for which the self-cleavage was 0.42.
For A13G A21G C79U the value was 0.69; for A13G A28C A35U, 0.22.
As for A13G U25C U49A A56G, the self-cleavage turned out to be 0.23.
For A13G G16C A28G A35U U48A U58A A64U the value was 0.1; for A13G C32A A47G A56U, 0.09; for A13G A20G U66A, 0.27.
Under A13G A35G U43A U49C A64G stands 0.06; under A13G A21G U41A A45G U51A G53U, 0.37.
Under A13G A64U U69C U78A stands 0.14.
A13G G19U A28G G55U A64U: the self-cleavage came to 0.07.
Under A13G U25C U43G A56G U69C stands 0.15.
For A13G A20G U51C U72C the value was 0.41.
Turning to A13G A18U U41A U48A, the self-cleavage turned out to be 0.06.
For A13G A21G U25C U69A U78C the value was 0.04; for A13G C62A A77G, 0.26.
For A13G A20G A57U A77G the value was 0.21; for A13G A18U U41G G55U U58A U67A, 0.07.
Turning to A13G U25G U43C A56G U66C, the self-cleavage came out at 0.35.
As for A13G C40A U66C U67A G70U, the self-cleavage amounted to 0.21.
Under A13G A21U A28G A45G U54C A77U U80C stands 0.
As for A13G C17G G22A U25C U26C A35G U74C, the self-cleavage is 0.06.
For A13G G24U U25C U31C U41C the value was 0.28; for A13G A57U U72C, 0.34.
Turning to A13G A35G A45G U67A U76C, the self-cleavage stood at 0.15.
For A13G C40U U72A A77G the value was 0.4; for A13G G30A U31A A47U U60C A65G, 0.08; for A13G A45G U49A, 0.21.
Under A13G A35G U66C U72A stands 0.22; under A13G A20U G33A U66C, 0.07; under A13G C40U A65G U72C U74A, 0.07.
Under A13G U25A U80C stands 0.22; under A13G G19A U41C U49C A65G, 0.07; under A13G C38A A56G A57G U80C, 0.18.
As to A13G G36U A77U, the self-cleavage was determined as 0.06.
For A13G G24A U78G the value was 0.18.
A13G C17U U25C A35C U66A U72C: the self-cleavage amounted to 0.04.
For A13G C17U U26C G52C U54G the value was 0.15.
For A13G G19C A28U U69C U74G A75U the value was 0.19.
Under A13G A45G C50A U54C U60C U76A stands 1.06.
With A13G C14U U54C U66C, the self-cleavage is 0.25.
Under A13G C59G A77G stands 0.26; under A13G A28G U49C U69A, 0.15.
For A13G C32G A56U the value was 0.1; for A13G A28U G30C U72C U74C, 0.05; for A13G A28U U43C U58G U66A U69A, 0.79.
For A13G A21G A45G U76C U78G, the self-cleavage was found to be 0.32.
For the variant A13G A35G C68A, the self-cleavage worked out at 0.23.
Turning to A13G A20U G46U, the self-cleavage came out at 0.09.
Under A13G A56C U66C stands 0.04; under A13G A45C U58C, 0.05.
Under A13G A20G A21G A47G U80C stands 0.34; under A13G G61A U69C U74A, 0.14; under A13G A21G A45G A56G U78G, 0.09.
For A13G A21U A64G the value was 0.09; for A13G A20C G24A U43C U80G, 0.05.
For the variant A13G A45G U60A, the self-cleavage turned out to be 0.27.
In the case of A13G A57G A64G U67C, the self-cleavage came out at 0.14.
Under A13G A20U A57G U66C stands 0.12; under A13G A45G C59U A77U, 0.42.
Under A13G A21U U31C A45G U48A U54C U72A stands 0.08.
